Test results as given in PMC4336329 (PLoS ONE, 2015).
The campaign covered roughly 310,000 compounds. About 14,000 (4.5%) showed an effect of 50% or more. The effect is printed as a negative number. The list shows a part of the results. Where a SMILES comes first, the peptide text is derived from it. The star is where a group is joined. Boc = CC(C)(C)OC(=O)*; Bn = c1ccc(C*)cc1

The compounds below were run against human ether-à-go-go-related gene (hERG) potassium channel (human, UniProt Q12809) (assay: primary screen, population patch clamp on CHO cells stably expressing hERG).
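Further: peak tail current of the secondary pulse compared with the same well before compound.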

Sequence of human ether-à-go-go-related gene (hERG) potassium channel (Q12809 whole entry, looked up): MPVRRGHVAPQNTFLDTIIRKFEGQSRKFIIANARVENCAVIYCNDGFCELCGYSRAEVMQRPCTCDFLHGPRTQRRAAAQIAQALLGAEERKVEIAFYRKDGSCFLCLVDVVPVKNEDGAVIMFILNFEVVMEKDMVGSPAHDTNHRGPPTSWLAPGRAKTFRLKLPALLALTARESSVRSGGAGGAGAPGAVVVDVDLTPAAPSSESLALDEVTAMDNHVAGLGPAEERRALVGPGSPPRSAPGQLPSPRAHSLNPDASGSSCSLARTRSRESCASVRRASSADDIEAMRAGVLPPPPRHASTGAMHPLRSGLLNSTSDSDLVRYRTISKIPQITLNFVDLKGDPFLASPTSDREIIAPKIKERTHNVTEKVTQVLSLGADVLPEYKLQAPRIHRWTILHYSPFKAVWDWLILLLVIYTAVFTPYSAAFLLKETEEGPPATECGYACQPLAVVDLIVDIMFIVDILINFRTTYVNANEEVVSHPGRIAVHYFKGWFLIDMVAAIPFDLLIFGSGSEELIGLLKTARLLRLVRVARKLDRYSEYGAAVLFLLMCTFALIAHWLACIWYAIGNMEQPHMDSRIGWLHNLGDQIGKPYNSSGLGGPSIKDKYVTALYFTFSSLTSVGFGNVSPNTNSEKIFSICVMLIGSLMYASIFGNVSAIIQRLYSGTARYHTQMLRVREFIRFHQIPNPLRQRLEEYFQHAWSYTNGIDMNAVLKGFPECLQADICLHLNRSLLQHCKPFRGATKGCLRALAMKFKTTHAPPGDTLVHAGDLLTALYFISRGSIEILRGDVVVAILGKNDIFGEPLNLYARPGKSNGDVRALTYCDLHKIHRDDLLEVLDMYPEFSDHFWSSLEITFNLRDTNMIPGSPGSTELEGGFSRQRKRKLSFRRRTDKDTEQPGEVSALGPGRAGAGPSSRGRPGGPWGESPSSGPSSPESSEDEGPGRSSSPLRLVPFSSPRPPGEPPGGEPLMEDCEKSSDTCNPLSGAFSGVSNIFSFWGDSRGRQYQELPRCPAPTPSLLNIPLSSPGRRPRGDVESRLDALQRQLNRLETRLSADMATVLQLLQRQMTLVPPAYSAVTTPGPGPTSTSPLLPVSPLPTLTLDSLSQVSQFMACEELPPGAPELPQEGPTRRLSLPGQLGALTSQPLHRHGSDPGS

| Compound | hERG current change (%, negative = inhibition) at 10uM |
| --- | --- |
| O=C(CCC(=O)OCC(=O)c1ccc(Br)cc1)Nc1ccc(Br)c2cccnc12 | -0.131% |
| CC1=C(C(=O)OCC(C)C)C(c2ccsc2)C2=C(CCCC2=O)N1 (stereo not drawn) | -18.9% |
| COc1ccc(-n2c(SCC(=O)/C(C#N)=C(\C)N)nc3ccccc3c2=O)cc1OC | 10.5% |
| CC1(c2nnc(Cc3ccccc3)o2)CC(c2cccnc2)=NO1 (stereo not drawn) | 3.26% |
| CCOC(=O)c1ccc(Oc2cn[nH]c2-c2ccc(O)cc2O)cc1 | 10.9% |
| COc1cccc(/C=C/C(=O)OCC(=O)NC2CC2)c1 | 13.2% |
| COc1ccc(-c2[nH]ncc2/C=N\NC(=O)c2ccc(C(C)(C)C)cc2)cc1OC | -9.5% |
| Clc1ccc(CSc2nnc(-c3cccnc3)n2Cc2ccco2)c(Cl)c1 | -68.7% |
| CC(=O)c1ccc(NC(=O)c2noc3c2CCCCC3)cc1 | 7.54% |
| CC1(C)CC(=O)C(N=Nc2c(F)cccc2F)=C(O)C1 | 18.7% |
| COc1cc(CN2C(=O)NC(=O)C3(Cc4cc(C)ccc4N(C)C3)C2=O)cc(OC)c1 (stereo not drawn) | -10.7% |
| Cc1ccc(NC(=O)COC(=O)CCC(=O)c2cccs2)c(Br)c1 | 5.47% |
| Cc1ccc(/C=C/C(=O)OCC(=O)Nc2ccccc2Sc2ccccc2)cc1 | -15.3% |
| CC(C)CCn1nc(C(=O)OC(C)C(=O)NC(N)=O)c2ccccc2c1=O (stereo not drawn) | 4.86% |
| CCN1CCN(C(=O)C(C)N(c2ccc(C)cc2)S(C)(=O)=O)CC1 (stereo not drawn) | 13.7% |
| CC1C=CCC2C(=O)N(c3cccc(C(=O)NCCc4ccccc4)c3)C(=O)C12 (stereo not drawn) | -8.03% |
| COc1ccc(C(=O)OC2CCCCC2CN(C)C)cc1.Cl (stereo not drawn) | 14.1% |
| Cc1cc(C)c2sc(NC(=O)C3=COCCO3)nc2c1 | -11.6% |
| Cc1ccc2nc(-c3ccccn3)cc(C(=O)NC(C)C(C)(C)C)c2c1 (stereo not drawn) | 19.4% |
| COc1ccccc1NC(=O)Nc1cc(C(C)(C)C)nn1C | 14% |
| CC1=C(C(=O)NCc2ccccc2)C(c2cccs2)n2ncnc2N1 (stereo not drawn) | 12.2% |
| Cc1cccc(NS(=O)(=O)c2ccc(C)c(C(=O)NCC(c3ccccc3)N(C)C)c2)c1 (stereo not drawn) | -14.2% |

| Compound | hERG current change (%, negative = inhibition) at 10uM |
| --- | --- |
| Cc1nc(Cl)sc1C(=O)Nc1ccccc1Cl | 8.63% |
| COc1ccc(CNC(=O)C2CCN(S(=O)(=O)c3ccc4c(c3)C(C)(C)C(=O)N4C)CC2)cc1 | 4.74% |
| Br.C=CCN1C(c2ccccc2)=CS/C1=C(\C#N)c1nnc2n1CCCCC2 | -59.2% |
| O=C(c1cccc(-c2nnc(-c3ccccc3)o2)c1)N1CCCCC1 | -19.3% |
| O=C(COc1ccccc1Cl)NCc1ccncc1 | -11.5% |
| CN(C)CCCn1c(SCCN2C(=O)c3ccccc3C2=O)nc2ccccc2c1=O | -45% |
| COc1ccc(OC)c(S(=O)(=O)Nc2cc3c4c(c2)CCC(=O)N4CCC3)c1 | 9.75% |
| Cc1ccnc(NC(=O)c2ccccc2NC(=O)c2ccccc2)c1 | 13.7% |
| O=C(c1ccnc(Cl)c1)N1CCCC(Nc2ccc(F)cc2)C1 (stereo not drawn) | 5.04% |
| O=C(NC(=S)Nc1cccc([N+](=O)[O-])c1)C1CCCC1 | -16.7% |
| CCn1cnc2cc(NC(=O)c3ccc(C)cc3)ccc21 | 0.392% |
| COc1ccc(NC(=O)CN(C)CC(=O)Nc2cccc(C(F)(F)F)c2)cc1 | -22.4% |
| Cc1cc(OCCCC(=O)NC2=NCCS2)ccc1Cl | 14.2% |
| NC(=O)c1c(Nc2nc3c(F)cccc3s2)sc2c1CCCC2 | 19.5% |
| CCOc1ccccc1NC(=O)C1CCCN(C(=O)NCc2ccccc2)C1 (stereo not drawn) | -13.4% |
| c1ccc(-c2nnc3n2N=C(c2ccc4c(c2)OCO4)CS3)nc1 | -32.7% |
| O=S(=O)(c1ccc(Cl)cc1)N1CCN(C(=S)Nc2ccc(F)c(Cl)c2)CC1 | 9.01% |
| O=C(NCCN1CCOCC1)C(Sc1ccccc1)c1ccccc1 (stereo not drawn) | -13.5% |
| O=C(Cn1c(=O)c2ccccc2n(CC(=O)N2CCCCC2)c1=O)N1CCCCC1 | 5.67% |
| CCOC(=O)C1C(=O)C=C(c2ccc([N+](=O)[O-])cc2)CC1c1ccccc1 (stereo not drawn) | -63.5% |
| CCOC(=O)C1CCCN(CC(=O)Nc2cccc(C(C)=O)c2)C1 (stereo not drawn) | 30.2% |
| COc1cnc(SCCC(F)=C(F)F)[nH]c1=O | 18.4% |

| Compound | hERG current change (%, negative = inhibition) at 10uM |
| --- | --- |
| CCOc1ccc(-n2ccnc2SCC(=O)Nc2nnc(CC)s2)cc1 | -11.9% |
| CN1CCN(CCNC(=O)Nc2ccc(Cl)cc2)CC1 | -0.17% |
| O=C(Nc1ccc(Br)cc1)c1cc(-c2cccs2)on1 | 9.55% |
| Cc1[nH]c(=O)c(C#N)c(C)c1CCC(=O)N(C)CC(=O)Nc1ccc(Cl)c(Cl)c1 | 20.9% |
| O=C(COC(=O)Cn1cnc2ccccc2c1=O)Nc1ccccc1Sc1ccc(Cl)cc1 | 0.2% |
| CC(Oc1ccc(Br)cc1)C(=O)NC1CCN(Cc2ccccc2)CC1 (stereo not drawn) | -80.4% |
| Cc1ccc(S(=O)(=O)NC(=O)C2CCCCC2)cc1 | 14.3% |
| CCCCNC(=O)NCCN1CCOCC1 | 28.7% |
| C=CCNC(=O)CN(c1cccc(Br)c1)S(C)(=O)=O | -4.93% |
| N[C@@H](Cc1ccccc1)c1nnc2sc(SCc3ccccc3)nn12 | -23.6% |
| COc1cc(/C=C(\CC(=O)O)c2nc3ccccc3s2)cc(OC)c1O | -2.3% |
| CC(C)CC(NC(=O)C(NC(=O)C(Cc1ccc(OCc2ccccc2)cc1)NC(=O)OC(C)(C)C)C(C)C)C(N)=O (stereo not drawn) (Boc-Tyr(Bn)-Val-Leu-NH2; configuration not given here) | 8.21% |
| CCOC(=O)c1ccc(NC(=O)NCCN2CCCCC2)cc1 | -31.6% |
| CCCCn1c(=O)[nH]c(=O)c2c1nc(CN(C)Cc1cccc(OC)c1OC)n2CCC.O=C(O)C(=O)O | 18.5% |
| CC1CCCc2sc3nc(NCc4ccco4)n4ncnc4c3c21 (stereo not drawn) | 8.43% |
| O=C(O)CN1C(=O)c2ccc(C(=O)c3ccccc3)cc2C1=O | 16.3% |
| CC1=NN(c2ccc(Br)cc2)C(=O)/C1=C/c1ccc(-c2ccccc2C(=O)O)o1 | 26.4% |
| CN1CCN(c2nc3c(c(=O)n(C)c(=O)n3C)n2CC(N)=O)CC1 | -4.88% |
| CCN(CC)S(=O)(=O)c1ccc(N2CCOCC2)c(NC(=O)CC2OC(=O)c3ccccc32)c1 (stereo not drawn) | -26% |
| Cc1ccc2c(c1)NC(=O)C(CC(=O)O)O2 (stereo not drawn) | 21.1% |
| COc1ccc(Cl)cc1S(=O)(=O)Nc1ccc(Cl)cn1 | 5.84% |
| COc1ccccc1NC(=O)C1=C(C)NC(=O)NC1c1ccc(C)s1 (stereo not drawn) | 10.7% |

| Compound | hERG current change (%, negative = inhibition) at 10uM |
| --- | --- |
| C=CCOc1ccc(/C=C/C(=O)OCC(=O)N(C)CC(=O)Nc2ccccc2Cl)cc1 | -4.18% |
| O=C(NCCC(=O)N1CCN(C(=O)c2ccco2)CC1)c1ccc(Br)cc1 | -28.6% |
| CCOC(=O)C1(CCCc2ccccc2)CCN(Cc2cn(CC)nc2C)CC1 | -74.1% |
| CNC(=O)c1ccsc1NC(=O)C1CCN(S(=O)(=O)c2cccs2)CC1 | -55.1% |
| CCC(Oc1ccccc1)C(=O)Nc1nnc(S(=O)(=O)N2CCCC2)s1 (stereo not drawn) | 7% |
| CC1CCCC(NC(=O)C2CCN(S(=O)(=O)c3cnc[nH]3)CC2)C1C (stereo not drawn) | 10.2% |
| Cc1nc(Nc2cccc(F)c2)c2oc3ccccc3c2n1 | 7.85% |
| O=C(O)CC(Cc1ccc(Cl)cc1)C(=O)NCc1ccccc1 (stereo not drawn) | 3.42% |
| CN(Cc1cccs1)C(=O)CN1C(=O)c2ccccc2S1(=O)=O | 5.39% |
| CCCCSc1ccc(NC(=O)c2cccnc2)cc1 | 4.42% |
| CSc1nncc(/C(C)=N/O)n1 | 8.64% |
| CCn1cnc2sc(C(=O)Nc3ccccc3OC)c(C)c2c1=O | 0.29% |
| COc1ccc(CCNC(=O)CCC(=O)NC2CCCCC2)cc1OC | 5.82% |
| CC1(c2ccc(Cl)cc2Cl)OCC(Cn2ccnc2)O1.O=C(O)C(=O)O (stereo not drawn) | -10% |
| COc1ccc(Cc2nnc(N/N=C/c3ccc(C)o3)[nH]c2=O)cc1 | 25.9% |
| Cc1nc(NC(=O)c2cccs2)ccc1Br | 2.41% |
| CC1CCCN(C(C(=O)Nc2ccc(C(C)C)cc2)c2ccc3c(c2)OCO3)C1 (stereo not drawn) | -1.07% |
| Cc1ccc2cccc(Oc3ccc([N+](=O)[O-])cc3[N+](=O)[O-])c2n1 | -7.96% |
| CCCCN(CCCC)S(=O)(=O)c1ccc(NC(=O)Cc2cccs2)cc1 | 13.5% |
| CC(=O)OC[C@H]1O[C@H](C/C=N/OC[C@@H](O)[C@H]2O[C@@H]3OC(C)(C)O[C@@H]3[C@H]2O)C=C[C@@H]1OC(C)=O | 6.38% |
| CC(C)OCc1c(C(=O)OC/C(O)=C(\C#N)c2nc3ccccc3[nH]2)oc2ccccc12 | 31.1% |
